Substitutions are numbered along the chain they refer to. Results are given in words; binding and its absence hold for the method and conditions named. For some of these results: In cells and extracts the contact can be indirect. Some binding calls cover weakened binding; strength is not graded here. Sequences can lack the tags named with a protein. One block for each substance: values may come before it.
What was measured:
[1] = molecular target: T1, GST-NOSIP (UniProt Q9Y314); assay: pull-down; 100 pmol GST-IBB, GST-NOSIP or GST immobilised on glutathione Sepharose beads, 100 pmol His-S-tagged importin β FL, ΔN or ΔC; Western blot with anti-importin β; both purified
T1 sequence: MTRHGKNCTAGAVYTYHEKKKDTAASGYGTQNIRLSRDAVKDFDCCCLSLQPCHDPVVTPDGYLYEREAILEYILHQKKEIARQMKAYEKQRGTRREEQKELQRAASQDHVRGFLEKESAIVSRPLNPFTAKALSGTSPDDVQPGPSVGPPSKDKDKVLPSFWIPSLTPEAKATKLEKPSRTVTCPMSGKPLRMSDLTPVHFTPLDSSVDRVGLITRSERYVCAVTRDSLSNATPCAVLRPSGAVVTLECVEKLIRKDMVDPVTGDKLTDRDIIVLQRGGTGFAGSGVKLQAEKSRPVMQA

Chains of the proteins cited; added tags and fusions are not shown. Lines headed by an entry give the natural chain unless they say otherwise; changes in a name come on top. Residues count along the entry.
UniProt O14980: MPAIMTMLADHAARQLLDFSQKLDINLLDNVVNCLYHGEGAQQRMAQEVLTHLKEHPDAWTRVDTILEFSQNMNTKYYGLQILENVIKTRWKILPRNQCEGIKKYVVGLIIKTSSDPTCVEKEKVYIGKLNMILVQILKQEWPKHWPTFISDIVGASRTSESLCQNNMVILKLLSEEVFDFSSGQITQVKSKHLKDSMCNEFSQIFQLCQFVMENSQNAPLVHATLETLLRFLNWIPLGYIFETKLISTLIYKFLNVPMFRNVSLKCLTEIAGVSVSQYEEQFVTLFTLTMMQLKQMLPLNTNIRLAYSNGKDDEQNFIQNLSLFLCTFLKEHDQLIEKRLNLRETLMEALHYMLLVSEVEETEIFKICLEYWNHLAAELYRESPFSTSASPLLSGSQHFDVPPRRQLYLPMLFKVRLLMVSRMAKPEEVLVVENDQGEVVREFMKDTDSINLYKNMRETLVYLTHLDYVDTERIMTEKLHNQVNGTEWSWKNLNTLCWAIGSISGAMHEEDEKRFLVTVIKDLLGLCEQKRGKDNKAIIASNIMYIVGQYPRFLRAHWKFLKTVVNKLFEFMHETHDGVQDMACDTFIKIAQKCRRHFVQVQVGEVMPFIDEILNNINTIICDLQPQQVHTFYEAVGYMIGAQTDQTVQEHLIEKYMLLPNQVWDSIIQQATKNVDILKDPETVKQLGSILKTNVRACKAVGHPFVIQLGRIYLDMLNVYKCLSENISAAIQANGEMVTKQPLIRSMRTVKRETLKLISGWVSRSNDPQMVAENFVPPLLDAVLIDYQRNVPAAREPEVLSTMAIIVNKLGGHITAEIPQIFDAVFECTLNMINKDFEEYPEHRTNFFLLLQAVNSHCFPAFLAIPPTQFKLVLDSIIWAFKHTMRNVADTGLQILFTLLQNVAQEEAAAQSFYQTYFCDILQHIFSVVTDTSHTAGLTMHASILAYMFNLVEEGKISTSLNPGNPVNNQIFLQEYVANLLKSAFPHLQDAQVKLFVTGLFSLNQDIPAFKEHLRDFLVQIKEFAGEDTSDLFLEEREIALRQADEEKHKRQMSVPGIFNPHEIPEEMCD
UniProt Q14974: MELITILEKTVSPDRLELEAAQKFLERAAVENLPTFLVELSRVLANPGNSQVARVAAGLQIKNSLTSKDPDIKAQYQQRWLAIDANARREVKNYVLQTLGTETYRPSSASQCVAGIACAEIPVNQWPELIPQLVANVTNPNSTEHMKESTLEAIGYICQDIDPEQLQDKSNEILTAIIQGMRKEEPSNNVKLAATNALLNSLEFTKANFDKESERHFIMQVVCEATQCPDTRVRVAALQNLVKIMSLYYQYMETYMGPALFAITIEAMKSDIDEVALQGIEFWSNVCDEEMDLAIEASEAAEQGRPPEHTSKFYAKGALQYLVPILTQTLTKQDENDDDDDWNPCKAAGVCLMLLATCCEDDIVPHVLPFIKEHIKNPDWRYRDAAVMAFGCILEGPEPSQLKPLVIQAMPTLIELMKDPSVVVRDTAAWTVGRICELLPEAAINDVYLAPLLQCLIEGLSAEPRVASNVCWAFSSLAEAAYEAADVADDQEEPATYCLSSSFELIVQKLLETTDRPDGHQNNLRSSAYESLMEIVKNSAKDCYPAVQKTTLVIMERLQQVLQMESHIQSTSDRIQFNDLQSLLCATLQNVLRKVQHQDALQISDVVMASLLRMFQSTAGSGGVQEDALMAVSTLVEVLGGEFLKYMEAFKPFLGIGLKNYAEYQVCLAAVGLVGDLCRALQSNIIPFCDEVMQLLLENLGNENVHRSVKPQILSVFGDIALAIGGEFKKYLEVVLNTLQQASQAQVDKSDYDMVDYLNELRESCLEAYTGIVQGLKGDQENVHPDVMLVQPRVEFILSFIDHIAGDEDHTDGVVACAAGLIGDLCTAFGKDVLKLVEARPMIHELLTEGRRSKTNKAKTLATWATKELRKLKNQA
UniProt Q92973: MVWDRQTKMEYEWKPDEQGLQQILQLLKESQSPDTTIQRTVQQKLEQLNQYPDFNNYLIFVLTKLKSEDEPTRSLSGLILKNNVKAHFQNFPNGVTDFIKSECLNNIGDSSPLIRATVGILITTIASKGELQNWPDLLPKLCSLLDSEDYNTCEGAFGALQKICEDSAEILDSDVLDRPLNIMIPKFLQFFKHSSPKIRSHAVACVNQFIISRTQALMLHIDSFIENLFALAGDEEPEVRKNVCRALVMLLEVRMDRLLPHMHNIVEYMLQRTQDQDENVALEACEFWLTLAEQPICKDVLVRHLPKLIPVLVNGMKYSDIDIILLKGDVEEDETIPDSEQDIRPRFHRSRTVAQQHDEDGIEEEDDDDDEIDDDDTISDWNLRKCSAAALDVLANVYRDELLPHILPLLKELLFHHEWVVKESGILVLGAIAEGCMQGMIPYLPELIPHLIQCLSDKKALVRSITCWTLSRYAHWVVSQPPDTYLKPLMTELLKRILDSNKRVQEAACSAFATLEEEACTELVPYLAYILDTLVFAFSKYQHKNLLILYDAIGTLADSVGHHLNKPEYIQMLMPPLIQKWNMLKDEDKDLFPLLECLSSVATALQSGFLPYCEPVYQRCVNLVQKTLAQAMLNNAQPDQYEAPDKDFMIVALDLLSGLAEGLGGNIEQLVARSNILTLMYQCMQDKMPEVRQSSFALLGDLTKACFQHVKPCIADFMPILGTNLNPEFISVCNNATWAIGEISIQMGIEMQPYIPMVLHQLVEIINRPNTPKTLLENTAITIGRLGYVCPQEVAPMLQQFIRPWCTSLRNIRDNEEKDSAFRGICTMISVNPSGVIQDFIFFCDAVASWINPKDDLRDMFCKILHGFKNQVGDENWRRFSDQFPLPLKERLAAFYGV
His-TNPO1 (transportin 1): residues 9-898 of Q92973
MBP-TNPO1 ΔN (aa 518-890): residues 526-898 of Q92973

[2] = molecular target: T2, His-NOSIP-MBP K78AK79A (UniProt Q9Y314); assay: pull-down; 100 pmol His-NOSIP-MBP (WT or K78A/K79A) or MBP immobilised on amylose beads, 100 pmol purified His-tagged NTR, with or without 300 pmol RanQ69L(1-180)-GTP, 3 h, 4 °C, TPB; SDS-PAGE, Coomassie; both purified
T2 sequence: T1 sequence with K78A, K79A

[3] = molecular target: T3, His-NOSIP-MBP (nitric oxide synthase interacting protein) (UniProt Q9Y314); assay: as above
T3 sequence: T1 sequence

[4] = molecular target: T3, His-NOSIP-MBP (nitric oxide synthase interacting protein); assay: pull-down; competition among NTRs: 100 pmol His-NOSIP-MBP immobilised on amylose beads, 100 pmol of one NTR and increasing amounts of the other; Coomassie; both purified
[5] = molecular target: T1, GST-NOSIP; assay: pull-down; GST-M9 or GST-NOSIP immobilised on glutathione Sepharose beads, MBP-tagged TNPO1 FL, ΔN or ΔC, with or without RanQ69L(1-180)-GTP; Coomassie; both purified
[6] = molecular target: T3, His-NOSIP-MBP (nitric oxide synthase interacting protein); assay: pull-down; 600 pmol His-NOSIP-MBP or MBP immobilised on MBP-selector beads, 200 μl HeLa cytosol (14.3 mg/ml), with or without 2000 pmol RanQ69L(1-180)-GTP, 6 h, 4 °C, transport buffer (TPB); Western blot; only the target purified

Substance: His-CRM1 (from UniProt O14980 1-1071)
binding [2]: no binding (tested: 100 pmol)

Substance: importin β (endogenous, HeLa cytosol) (from UniProt Q14974 1-876)
binding [6]: binds

Substance: transportin 1 (endogenous, HeLa cytosol) (from UniProt Q92973 1-898)
binding [6]: binds

Continued, values first:

binding [1]: binds weakly
Substance: importin β ΔN (aa 304-876), His-S-tagged (from UniProt Q14974 304-876) (domain or fragment)

binding [3]: binds
binding [4]: binds
Substance: His-TNPO1 (transportin 1) (from UniProt Q92973-2 1-890)

binding [5]: binds weakly
Substance: MBP-TNPO1 ΔN (aa 518-890) (from UniProt Q92973-2 518-890) (domain or fragment)
